Here are results for 40 compounds from the antibiotic and cytotoxicity screens of Wong et al. (2023).

This is one part of the list.

In the first assay the test system is HSkMC (human skeletal muscle cells). The assay is described as follows: cytotoxicity call (relative viability < 0.9). As to conditions: 10 µM.
For `CC(=O)c1cc(S(=O)(=O)c2ccc(C)cc2)c(CC[C@H](COC(=O)NCCCCCC(=O)NO)NC(=O)Nc2nnc[nH]2)o1`, the cytotoxicity call is “inactive”.
As to `Cc1noc(C)c1NC(=O)N(C)C[C@H]1OCCCC[C@@H](C)Oc2ccc(NS(=O)(=O)c3ccccc3)cc2C(=O)N([C@@H](C)CO)C[C@@H]1C`, the cytotoxicity call was “inactive”.
For `CC(=N)NCCSCC[C@H](N)C(=O)O`, the cytotoxicity call was “inactive”.
With `CC(C)CC#Cc1ccc2c(c1)O[C@H](CN(C)C(=O)c1ccccn1)[C@@H](C)CN([C@H](C)CO)S2(=O)=O`, the cytotoxicity call is “inactive”.
Take `COc1ccc(S(=O)(=O)Nc2ccc3c(c2)C(=O)N([C@@H](C)CO)C[C@H](C)[C@@H](CN(C)S(C)(=O)=O)OCCCC[C@@H](C)O3)cc1`: the cytotoxicity call was “inactive”.
On the same count and under the same terms, as for `C[C@@H]1CN([C@H](C)CO)C(=O)c2cc(NC(=O)Cn3cnnn3)ccc2O[C@H]1CN(C)C(=O)Nc1ccc(F)cc1`, the entry is “inactive”.
Turning to `C[C@H](O)C#Cc1ccc2c(c1)O[C@@H](CN(C)C(=O)Nc1ccccc1)[C@@H](C)CN([C@H](C)CO)S2(=O)=O`, the cytotoxicity call was “inactive”.
Regarding `COCCOC(=O)N1C(=O)[C@@]2(c3ccccc31)[C@H](c1ccc(OCCO)cc1)N1[C@H](c3ccccc3)[C@H](c3ccccc3)OC(=O)[C@H]1[C@@H]2C(=O)N1CCc2cc(OC)c(OC)cc2C1`, the cytotoxicity call was “inactive”.
Still for that read-out and setting: as for `C[C@H]1CCCCO[C@H](CN(C)C(=O)Nc2ccccc2)[C@@H](C)CN([C@@H](C)CO)C(=O)c2cc(NC(=O)c3ccccc3)ccc2O1`, the entry is “inactive”; as for `CC(=O)NC1C(O)CC(O)(C(=O)O)OC1C(O)C(O)CO` (stereo unspecified), “inactive”.
Take `COc1cccc(c1)CN1C[C@]2(CCN(CC2)S(=O)(=O)C)c2c(n(c3cc(ccc23)OC)C)[C@@H]1CO`: the cytotoxicity call is “inactive”.

For another assay, the system named is HepG2. Put plainly: cytotoxicity call (relative viability < 0.9). As to conditions: 10 µM.
For the compound `COc1cccc(S(=O)(=O)N(C)C[C@H]2Oc3ncc(C#CC(C)C)cc3C(=O)N([C@H](C)CO)C[C@@H]2C)c1`, the cytotoxicity call was “inactive”.
Same read-out and setting: to `C[C@@H]1CN([C@@H](C)CO)C(=O)c2cc(NS(=O)(=O)c3ccc(F)cc3)ccc2O[C@@H](C)CCCCO[C@@H]1CN(C)C(=O)CCC(F)(F)F` belongs “inactive”; to `CC(C)NC(=O)Nc1ccc2c(c1)CC(=O)N([C@@H](C)CO)C[C@H](C)[C@@H](CN(C)S(=O)(=O)c1cn(C)cn1)O2`, “inactive”.
On to `C[C@@H]1CN([C@@H](C)CO)C(=O)c2cccc(NS(=O)(=O)c3ccc(F)cc3)c2O[C@H]1CN(C)Cc1ccc(Cl)c(Cl)c1`, for which the cytotoxicity call is “inactive”.
Consider `C[C@@H]1CN([C@@H](C)CO)C(=O)c2cccc(NC(=O)C3CCOCC3)c2O[C@H]1CN(C)Cc1ccc(-c2ccccc2)cc1`, for which the cytotoxicity call is “inactive”.
In the case of `COC(=O)/C=C/c1ccc(C(=O)NCC(=O)N[C@@H](CCC(=O)OC)C(=O)N[C@@H](CC(C)C)C(N)=O)cc1`, the cytotoxicity call is “inactive”.
On the same count and under the same terms, as for `CO[C@H]1CN(C)C(=O)c2cc(NS(=O)(=O)c3cn(C)cn3)ccc2OC[C@H](C)N(Cc2cccc(F)c2)C[C@H]1C`, the entry is “inactive”; as for `CCCNC(=O)N[C@@H]1CC[C@H](CC(=O)N2CCN(C)CC2)O[C@H]1CO`, “inactive”; as for `Cn1cnc(S(=O)(=O)N2C[C@@H](O)COC[C@H]3O[C@@H](CC(=O)NCc4cccc(F)c4)CC[C@@H]32)c1`, “inactive”.
Turning to `CN(C)CCCN1c2ccccc2Sc2ccc(Cl)cc21.Cl`, the cytotoxicity call is “active”.
Turning to `COCC(=O)N1CC[C@@H](O)[C@@H]1Cc1cnn(C)c1`, the cytotoxicity call is “inactive”.
Consider `CO[C@H](CN(C)S(=O)(=O)c1ccc(F)cc1)[C@H](C)CN([C@@H](C)CO)S(=O)(=O)c1cccc(Cl)c1`, for which the cytotoxicity call is “inactive”.
The same measure, in the same setting: to `C[C@H](CO)N1C[C@H](C)[C@H](CN(C)S(=O)(=O)c2cn(C)cn2)Oc2cc(C#Cc3ccc(F)cc3)ccc2S1(=O)=O` belongs “inactive”; to `C[C@H]1CCCCO[C@H](CN(C)Cc2ccccc2)[C@@H](C)CN([C@@H](C)CO)C(=O)c2cc(NC(=O)C3CCCCC3)ccc2O1`, “inactive”; to `Cc1ccc(S(=O)(=O)N(C)C[C@@H]2Oc3cc(C#Cc4ccncc4)ccc3S(=O)(=O)N([C@@H](C)CO)C[C@H]2C)cc1`, “active”.
On to `COc1ccc(NC(=O)Nc2ccc3c(c2)C(=O)N([C@H](C)CO)C[C@H](C)[C@@H](CN(C)CC2CC2)OCCCC[C@H](C)O3)cc1`, for which the cytotoxicity call is “inactive”.
The same measure, in the same setting: to `NC1(C(=O)O)CCCC1` belongs “inactive”.
Consider `C[C@@H]1CN([C@H](C)CO)C(=O)c2cccc(NS(C)(=O)=O)c2O[C@@H]1CN(C)C(=O)Nc1ccc(F)cc1`, for which the cytotoxicity call was “inactive”.
For `CC(C)NC(=O)N(C)C[C@@H]1Oc2ccc(NC(=O)C3CCCCC3)cc2CC(=O)N([C@@H](C)CO)C[C@H]1C`, the cytotoxicity call was “inactive”.
Consider `Cc1noc(C)c1NC(=O)Nc1cccc2c1O[C@@H](CN(C)Cc1ccc(Cl)c(Cl)c1)[C@H](C)CN([C@@H](C)CO)C2=O`, for which the cytotoxicity call is “inactive”.
For `CCOc1nc2cccc(C(=O)O)c2n1Cc1ccc(-c2ccccc2-c2nnn[nH]2)cc1`, the cytotoxicity call is “inactive”.
In the case of `C=CC[C@H](CC(=O)N(CCO)Cc1ccccc1)C(=O)NC[C@H](OC(=O)[C@@H](CC=C)Cc1ccc(F)cc1)c1ccccc1`, the cytotoxicity call is “inactive”.
Consider `C[C@@H]1CCCCO[C@H](CN(C)C(=O)Cc2ccccc2)[C@@H](C)CN([C@@H](C)CO)C(=O)c2cc(NS(=O)(=O)c3ccc(F)cc3)ccc2O1`, for which the cytotoxicity call was “inactive”.
In the case of `CN1CCN(C(=O)C[C@@H]2CC[C@H]3[C@@H](COC[C@H](O)CN3Cc3ccc(Oc4ccccc4)cc3)O2)CC1`, the cytotoxicity call is “inactive”.
For the compound `C[C@@H]1CN([C@H](C)CO)C(=O)c2cc(NC(=O)Nc3ccc(F)cc3)ccc2O[C@@H](C)CCCCO[C@H]1CN(C)S(=O)(=O)c1ccc(Cl)cc1`, the cytotoxicity call was “active”.
With `COc1ccc(NC(=O)Nc2ccc3c(c2)C(=O)N([C@@H](C)CO)C[C@H](C)[C@@H](CN(C)Cc2ccc4c(c2)OCO4)OCCCC[C@@H](C)O3)cc1`, the cytotoxicity call was “inactive”.
In the case of `COC(=O)[C@H](Cc1ccccc1)N1CC2=C[C@@H](C3CC3)n3c(=O)n(C)c(=O)n3[C@H]2[C@@H]1[C@@H](O)CCn1cc(-c2cccc(/C=C/C(=O)NO)c2)nn1`, the cytotoxicity call was “inactive”.
`C[C@@H]1CN([C@@H](C)CO)C(=O)c2cccc(NC(=O)Nc3ccc(C(F)(F)F)cc3)c2O[C@@H]1CN(C)Cc1ccc(C(=O)Nc2ccccc2N)cc1`: the cytotoxicity call was “active”.
As to `Cc1noc(C)c1NC(=O)N(C)C[C@H]1Oc2ncc(C#CCC(C)C)cc2C(=O)N([C@@H](C)CO)C[C@@H]1C`, the cytotoxicity call was “inactive”.
For the compound `CC(=O)c1cc(S(=O)(=O)c2ccc(C)cc2)c(CC[C@H](COC(=O)NCCCCCC(=O)NO)NC(=O)Nc2nnc[nH]2)o1`, the cytotoxicity call is “inactive”.
As for `Cc1noc(C)c1NC(=O)N(C)C[C@H]1OCCCC[C@@H](C)Oc2ccc(NS(=O)(=O)c3ccccc3)cc2C(=O)N([C@@H](C)CO)C[C@@H]1C`, the cytotoxicity call was “inactive”.
Turning to `CC(=N)NCCSCC[C@H](N)C(=O)O`, the cytotoxicity call is “inactive”.
Turning to `CC(C)CC#Cc1ccc2c(c1)O[C@H](CN(C)C(=O)c1ccccn1)[C@@H](C)CN([C@H](C)CO)S2(=O)=O`, the cytotoxicity call is “inactive”.
Still for that read-out and setting: as for `COc1ccc(S(=O)(=O)Nc2ccc3c(c2)C(=O)N([C@@H](C)CO)C[C@H](C)[C@@H](CN(C)S(C)(=O)=O)OCCCC[C@@H](C)O3)cc1`, the entry is “inactive”.
Regarding `C[C@@H]1CN([C@H](C)CO)C(=O)c2cc(NC(=O)Cn3cnnn3)ccc2O[C@H]1CN(C)C(=O)Nc1ccc(F)cc1`, the cytotoxicity call is “inactive”.
For `C[C@H](O)C#Cc1ccc2c(c1)O[C@@H](CN(C)C(=O)Nc1ccccc1)[C@@H](C)CN([C@H](C)CO)S2(=O)=O`, the cytotoxicity call was “inactive”.
Take `COCCOC(=O)N1C(=O)[C@@]2(c3ccccc31)[C@H](c1ccc(OCCO)cc1)N1[C@H](c3ccccc3)[C@H](c3ccccc3)OC(=O)[C@H]1[C@@H]2C(=O)N1CCc2cc(OC)c(OC)cc2C1`: the cytotoxicity call was “inactive”.
With `C[C@H]1CCCCO[C@H](CN(C)C(=O)Nc2ccccc2)[C@@H](C)CN([C@@H](C)CO)C(=O)c2cc(NC(=O)c3ccccc3)ccc2O1`, the cytotoxicity call was “inactive”.
For the compound `CC(=O)NC1C(O)CC(O)(C(=O)O)OC1C(O)C(O)CO` (stereo unspecified), the cytotoxicity call is “inactive”.
In the case of `COc1cccc(c1)CN1C[C@]2(CCN(CC2)S(=O)(=O)C)c2c(n(c3cc(ccc23)OC)C)[C@@H]1CO`, the cytotoxicity call is “inactive”.
